Experimental data from PubChem BioAssay AID1346428 (National Center for Advancing Translational Sciences (NCATS), 2018).
Among all 48,000 compounds or so, about 1,200 (2.5%) were called active. Not shown: some 2% with an inconclusive outcome.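 The calls were made as follows: active = activation of at least 60% and not above a set upper limit (about 1 call in 100 departs from these limits); inconclusive = activation of 40% to 60%, or above that upper limit; inactive = activation under 40%.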 Some of the results follow.

biological target: Probable G-protein coupled receptor 32 (Homo sapiens) (UniProt O75388); experiment: qHTS for Agonists of Human Resolvin D1 Receptor DRV1; conditions: CHO-K1 GPR32 beta-arrestin PathHunter luminescence, 90 min; at 76.9 µM; hits give high values; zero percent set by DMSO-only wells; also: 0% is about no effect
Chain of UniProt O75388 (O75388 whole entry, looked up): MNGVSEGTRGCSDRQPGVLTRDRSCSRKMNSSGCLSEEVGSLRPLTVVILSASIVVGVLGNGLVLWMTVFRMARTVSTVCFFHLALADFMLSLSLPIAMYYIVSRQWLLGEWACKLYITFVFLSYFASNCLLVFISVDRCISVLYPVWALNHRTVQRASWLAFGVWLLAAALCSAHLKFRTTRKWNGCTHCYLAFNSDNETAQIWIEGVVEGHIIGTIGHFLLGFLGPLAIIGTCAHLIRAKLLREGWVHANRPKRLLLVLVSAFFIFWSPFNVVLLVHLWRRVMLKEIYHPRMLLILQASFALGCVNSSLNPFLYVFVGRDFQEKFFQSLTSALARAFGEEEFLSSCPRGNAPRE
Method in brief: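 Readings come from a cell-based beta-arrestin complementation format: CHO-K1 GPR32 stable cells (2,500/well) treated 90 min with compounds, then beta-Gal substrate added for 1 h before chemiluminescence imaging.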

activation, inactive:
O=C(NCCc1ccccc1)c1ccc2c(c1)N(Cc1ccccc1F)C(=O)c1ccccc1S2=O (centres undefined) -19.5%, O=c1c(N2CCc3ccccc3C2)csc2ccccc12 -36.3%, CNC(=O)C1CCC(Cn2c(=O)c3sccc3n(CC(=O)NCc3ccc(F)cc3)c2=O)CC1 (centres undefined) 0.228%, O=C(C1CCCN(S(=O)(=O)c2ccc(Br)s2)C1)N1CCN(c2ccccc2)CC1 (centres undefined) 15.6%, CCOc1ccc(-c2nc3c(c(SCC(=O)N4CCCCC4)n2)Cc2ccccc2O3)cc1 7.19%, Cc1ccc(-c2ccc(=O)n(CC(=O)Nc3cccc(C#N)c3)n2)cc1 12.5%, C=Cc1ccc(Cn2c(C(=O)O)c(CNCc3ccccc3)c3ccc(C)cc32)cc1 9.5%, CC1=C(C(=O)Nc2cccnc2)C(c2ccccc2)n2nc(-c3ccc(O)cc3)nc2N1 (centres undefined) -13.1%, Cc1ccc(C2CCN(C(=O)c3cnn(-c4ccc(C)cc4)c3C3CCN(C(=O)OC(C)(C)C)CC3)C2)cc1 (centres undefined) -23.2%, COc1ccc(NC(=O)c2ccc3c(=O)n4nc(Nc5cccc(Cl)c5C)sc4nc3c2)cc1 6.27%, CC(=O)N1CCCc2cc(S(=O)(=O)N3CCCC(C(=O)Nc4cc(Cl)ccc4C)C3)ccc21 (centres undefined) -8.92%, Cc1ccc(-c2csc(=Nc3ccc(F)cc3)n2Cc2ccc3c(c2)OCO3)cc1C -5.69%, CCCCCCCCCCCCCCCCN 3.75%, CCOc1ccccc1NS(=O)(=O)c1ccc(-c2cnc(C3CC3)o2)cc1 -6.6%, Cc1c(Cl)cccc1NC(=O)c1ncn(-c2ccccc2)n1 -2.26%, COc1cccc(NC(=O)CC(C)S(=O)(=O)c2ccc3c(c2)NC(=O)CO3)c1 (centres undefined) 1.3%, Cc1cc(C)cc(NS(=O)(=O)c2ccc3c(c2)CCCN3C(=O)C2CCC2)c1 -0.582%, COc1ccc(-n2ncc(C(=O)N3CCc4ccccc4C3)c2C2CCN(C(=O)OC(C)(C)C)CC2)cc1 -11.1%, CC(C(=O)O)c1ccc2c(c1)Cc1cccnc1O2 (centres undefined) -1.26%, CCc1ccc2oc(C(=O)Nc3nonc3CC)c(C)c2c1 39%, O=C(Nc1ccc(Br)cc1F)c1ncoc1-c1ccco1 -4.99%, C[C@H]1COc2c(C3(N)CC3)c(F)cc3c(=O)c(C(=O)O)cn1c23 -4.42%, Cc1oc2ncn(C)c(=O)c2c1C(=O)NCCCN1CCCC(C)C1 (centres undefined) -6.81%, COc1ccc(-c2cc(C(F)(F)F)n3nc(C(=O)NCC45CC6CC(CC(C6)C4)C5)cc3n2)cc1 -7.76%
